Measured values from publication PMC12040169 (PLOS Biology, 2025).
The list shows a part of the results.

Tested on: T1, C. trachomatis L2/434/Bu expressing GFP (CTL2-GFP)
T1 construct: L2/434/Bu GFP intracellular growth in HeLa cells
Design: species or system HeLa; C. trachomatis total inclusion area by high-content imaging, normalised to DMSO
Settings: total inclusion area; 28.5 h, 10 µM; inhibitor
Procedure, shortened: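 Bulk GFP and resorufin signals were read first. Wells were then fixed, stained with Hoechst and imaged to detect GFP inclusions and host nuclei. MICs followed the previously described calculation.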

Row | SMILES | % of control remaining
1 | CN(C)CCCOc1nccnc1N1CCCC1 [CBK113427] | 91.6409
2 | O=C1NCCN(C(=O)c2[nH]nc3c2CCCCC3)C1Cc1ccccc1-c1ccc(F)cc1 (stereo not drawn) [CBK285831] | 107.008
3 | O=C1CC(c2ccco2)CC(=O)C1=CNCCN1CCNCC1 (stereo not drawn) [CBK263668] | 105.76
4 | NC(=O)COc1ccc(CNC(=O)CN2CCCCCC2)cc1 [CBK306332] | 30.8894
5 | CCn1c(CC2CCN(c3ncc(C#N)c(N)n3)CC2)nn(C)c1=O [CBK306788] | 85.7922
6 | OC1(c2ccc(F)cc2)CC2CCC(C1)N2CC1=CCCOC1 (stereo not drawn) [CBK282942] | 75.0028
7 | Cc1ccc(NC(=S)N2CCCC2C(=O)O)c(C)c1 (stereo not drawn) [CBK007148] | 79.5989
8 | CC1(C)Cc2nc(-c3ccccc3)nc(SCC(=O)NCCc3ccccc3)c2CO1 [CBK267205] | 113.307
9 | CC(=O)Nc1ccc(-c2nc(-c3ccc(-c4ccccc4)cc3)c(-c3ccc(-c4ccccc4)cc3)[nH]2)cc1 [CBK262620] | 102.103
10 | CN(C)/N=C\c1cccc(O)c1 [CBK015814] | 39.4445
11 | COc1ccc(NC(=O)c2cc(C(C)C)n(-c3nc4ccccc4s3)n2)cc1 [CBK287667] | 79.8943
12 | COc1ccc(C(=O)NNC(=O)c2cccc(O)c2)cc1 [CBK262594] | 88.4414
13 | CC(=O)N1CCN(CC(O)Cn2c3ccccc3c3ccccc32)CC1 (stereo not drawn) [CBK305588] | 39.3486
14 | CC(=O)N1CCC(O)(C2(C)OC(NC3C4CC5CC(C4)CC3C5)=NC2=O)CC1 (stereo not drawn) [CBK138181] | 88.5764
15 | Clc1cc2nc(Sc3ccccn3)c(N3CCCC3)nc2cc1Cl [CBK093754] | 90.0615
16 | COc1cc(CN2CCN(c3ccccn3)CC2)ccc1OCc1ccccc1 [CBK261906] | 97.4383
17 | CCCc1ccc(S(=O)(=O)N2CCN(Cc3ccc4c(c3)OCO4)CC2)cc1 [CBK074735] | 78.1522
18 | Cc1ccc2cc(CN(Cc3ccc(N(C)C)cc3)C(=O)NC3CCCCC3)c(=O)[nH]c2c1C [CBK132070] | 51.8488
19 | Cc1nc(C(=O)N2CCC3(CCCCOc4ccccc4C(=O)NCCNC3=O)CC2)co1 [CBK292089] | 110.65
20 | Cc1cccc(CNc2nccnc2-c2cccs2)c1 [CBK036808] | 96.7377
21 | CNCS(=O)(=O)C(F)(F)S(=O)(=O)N(C)C [CBK018820] | 99.823
22 | CC(C)CNC(=O)C1CCN(C(=O)c2cccc(F)c2)CC1 [CBK304338] | 57.1444
23 | O=C(O)c1ccccc1C(=O)Nc1c(-c2ccccc2)nc2ccccn12 [CBK287041] | 88.6911
24 | COc1cccc2ncn(C(C)c3nc(C)sc3C)c(=O)c12 (stereo not drawn) [CBK306570] | 83.3706
25 | CC(C)Nc1nc2cc(Cl)c(Cl)cc2nc1OCc1cccnc1 [CBK115743] | 84.1538
26 | COC(=O)c1c(NC(=S)Nc2cccc(S(=O)(=O)N3CCOCC3)c2)sc2c1CCC2 [CBK267054] | 102.346

Row | SMILES | % of control remaining
27 | CCOc1ccc(-c2csc(NC(=O)CC)n2)cc1 [CBK287764] | 85.0698
28 | Cc1cc(COC(=O)Nc2ccc3nc(C)ccc3c2)cc(C)n1 [CBK200127] | 88.585
29 | CC(C)c1ccc(/C=C/C(=O)NCc2ccc(C#N)cc2)cc1 [CBK149642] | 98.3502
30 | Cc1cc(S(=O)(=O)NC(=O)CC2CCOc3ccccc32)c(C)o1 (stereo not drawn) [CBK304499] | 47.2378
31 | COC(=O)CN1C(=O)N2CCCN=C2c2ccc(Cl)cc21 [CBK284402] | 77.225
32 | Cc1oc(-c2ccccc2)nc1CCOc1ccc(NC(=O)c2ccc(Cl)cc2Cl)c(C(=O)O)c1 [CBK000168D] | 80.2539
33 | COc1ccc(C(O)Cn2c(=N)n(CCN3CCCCC3)c3ccccc32)cc1 (stereo not drawn) [CBK262930C] | 52.5517
34 | COc1cccc(-c2cc3c(=S)[nH]ccn3n2)c1 [CBK288437] | 71.4362
35 | CC(C)CNc1nc2c(c(=O)n(Cc3ccccc3)c(=O)n2C)n1Cc1ccccc1 [CBK293946] | 90.5919
36 | Cc1cc(C2CCCCCN2Cc2c(C)nn(C)c2C)no1 (stereo not drawn) [CBK284846] | 106.483
37 | CC(C)c1cccc(C(C)C)c1OCC(O)CN1CCCCC1 (stereo not drawn) [CBK003079T] | 119.656
38 | CC(=O)N1CCc2ccc(NC(=O)c3cncc(-c4ccc(C(=O)N5CCOCC5)cc4)c3)cc21 [CBK160217] | 104.755
39 | CN1C(=O)COc2ccccc2C/C=C/C[C@@H]2[C@H]1CCCN2C(=O)CNS(C)(=O)=O [CBK292079] | 116.647
40 | Cc1ccc(C(=O)N2C[C@H]3CC[C@](O)(c4ccc(F)cc4)[C@H]3C2)o1 [CBK285267] | 87.0719
41 | Cn1ncc(N2CCC(CNC(=O)Cc3ccc(O)c(Cl)c3)C2)cc1=O (stereo not drawn) [CBK307689] | 61.06
42 | CS(=O)(=O)N1CC2(CCN(Cc3nc4ccccc4[nH]3)CC2)c2ccccc21 [CBK126672] | 87.9041
43 | COc1ccc(OC[C@@H]2C3CCC(C3)N2C(=O)C2CC2)cc1 (stereo partly drawn) [CBK284602] | 83.1594
44 | CC(C)(C)OC(=O)N1CCCC(C(=O)NCCc2ccccn2)C1 (stereo not drawn) [CBK304281] | 79.0778
45 | O=C(NCCCn1ccnc1)c1cc2ncc(Br)cn2n1 [CBK277080] | 44.7613
46 | COc1ccc([C@@]23CC[C@@H](NC(=O)c4ccc(-c5ccccc5)cc4)CC2N(C)CC3)cc1OC (stereo partly drawn) [CBK074973T] | 28.1343
47 | CC(=O)NCc1cccc(-c2cc(CO)cnc2-c2ccc(Cl)cc2)c1 [CBK161445] | 68.2799
48 | CCNc1ncc(C(=O)NC(CCn2ccnc2)c2ccccc2)cn1 (stereo not drawn) [CBK307066] | 65.017
49 | COc1ccccc1-c1nccnc1NCc1ccc(OC(F)(F)F)cc1 [CBK036761] | 90.7606
50 | COc1ccc(CCNS(=O)(=O)c2cc([N+](=O)[O-])ccc2C)cc1OC [CBK267412] | 86.1916
51 | CN(CC1COCCO1)C(=O)c1cc(Cn2ccc3ccccc32)[nH]n1 (stereo not drawn) [CBK307673] | 83.7187
52 | O=S(=O)(c1ccccc1)N1C[C@@H]2CCCCN(CC3CC3)[C@@H]2C1 [CBK285501] | 76.8492

Row | SMILES | % of control remaining
53 | O=C(Nc1ccccc1[N+](=O)[O-])c1ccc(Cl)c(S(=O)(=O)N2CCC(C(=O)O)CC2)c1 [CBK265180] | 91.3625
54 | Cc1cccc(C(C)(C)C)c1OCCNCCN [CBK265058G] | 104.562
55 | Cc1ccc(CSCCNS(=O)(=O)c2cccc([N+](=O)[O-])c2)cc1 [CBK267864] | 76.4791
56 | CNC(=O)c1oc(-c2ccc(OC)cc2)c(-c2ccc(OC)cc2)c1C(=O)NC [CBK001956] | 84.543
57 | Cc1c(C(c2ccc3ccccc3c2)c2c(C)n(C)n(-c3ccccc3)c2=O)c(=O)n(-c2ccccc2)n1C [CBK261692] | 73.6098
58 | CCCCC(=O)N(C)c1c(CC)nc2c(OCCn3cccc3)cccn12 [CBK147785] | 120.919
59 | CCCCCCN(CCN1CCOCC1)C(=O)Nc1cc(C)on1 [CBK305147] | 78.4373
60 | N#Cc1ccc(CN2CCN(S(=O)(=O)c3ccc(-n4cnc(Cl)c4Cl)cc3)CC2)cc1 [CBK062972] | 78.7107
61 | Cc1ccccc1Nc1nc(N)nc(CN2CCN(C)CC2)n1 [CBK304217] | 70.9558
62 | O=[N+]([O-])c1ccc2c(c1)C(N1CCOCC1)/C(=C/C1(O)CCCCC1)O2 (stereo not drawn) [CBK263200] | 35.7614
63 | Cc1nc(C)c(-c2csc(Nc3ccc(S(N)(=O)=O)cc3)n2)s1 [CBK263292B] | 76.8938
64 | Cn1nc(C2CCCCC2)cc1[C@H]1CN2CC[C@H]1C[C@@H]2CNC(=O)c1ccco1 [CBK289106] | 104.537
65 | CN(C)CCN(Cc1ccccc1)C(=O)NCc1cccnc1 [CBK145048] | 102.239
66 | Cc1cc2c(=O)n(Cc3ccco3)c(SCc3nc4ccccc4[nH]3)nc2s1 [CBK268202] | 101.783
67 | CN(C)CCN(C)c1cncc(-c2ccc(Cl)cc2)n1 [CBK065724] | 41.7152
68 | CC(=O)OCc1ccc(CN2CCCCCC2c2cc(C)on2)o1 (stereo not drawn) [CBK283004] | 106.132
69 | Cc1ccc(S(=O)(=O)NCc2c(-c3ccccc3)c3cc(Br)ccc3[nH]c2=O)cc1 [CBK265231] | 82.3981
70 | O=C(CC1(O)C(=O)N(CN2CCOCC2)c2ccccc21)c1ccc2c(c1)OCO2 (stereo not drawn) [CBK269639] | 87.9483
71 | COc1ccc(S(=O)(=O)NCCO)cc1-c1nnc2c3ccccc3c(C)nn12 [CBK266933] | 108.802
72 | O=C(c1ccc(OC(F)(F)F)cc1)N1CCN(c2nnnn2-c2ccccc2)CC1 [CBK296622] | 117.087
73 | COCCNc1nc(-c2cccc(Cl)c2Cl)ccc1C(=O)N(C)CCN(C)C [CBK105922] | 76.2067
74 | Cn1c(=O)n(CC(=O)N2CCc3ccccc32)c2cccnc21 [CBK283792] | 67.7114
75 | COCCNC(=O)c1ccc(-c2ccccc2CO)nc1N1CCOCC1 [CBK076559] | 104.756
76 | CCN(CC)C(=O)N1CCC2(CC1)CC(=O)c1ccccc1O2 [CBK283495] | 95.7097
77 | COCCN1CCOC2(CCN(C(=O)c3ccc(C)cc3)CC2)C1c1ccccc1OC (stereo not drawn) [CBK112657C] | 95.0217
78 | O=C(O)CN(Cc1ccccc1)Cc1ccccc1 [CBK260903] | 89.2042
